According to PubChem BioAssay AID651820 (National Center for Advancing Translational Sciences (NCATS), 2012):
Values joined by “and” are separate entries in the source; they are usually repeats but may differ in a detail not shown here. Identical values can stand only once. The campaign covered roughly 340,000 compounds. About 12,000 (3.5%) were called active. The inconclusive results got no clear call from the source; some entries with a clear call stand among them for comparison. Calls follow the shape of the dose curve; as a rule, active = well fitted inhibition curve with a large enough effect; inconclusive = small, poorly fitted or top-dose-only effect, or another doubt; inactive = no such curve, though single readings can be large or run the other way. A potency beside an inconclusive call is a rough fit, not a confirmed value.

Test: qHTS Assay for Inhibitors of Hepatitis C Virus (HCV)
Conditions: Huh7.5.1 HCVcc-Cre (HCVcc is cell-culture hepatitis C virus) infection, luciferase reporter, 44 h; series mostly up to 41.8 µM
Procedure, shortened: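 Whole-lifecycle infectious HCVcc-Cre system; cells 1,000/well, compound then virus (~0.5 moi) added 4 h after plating, 44 h culture. Luciferase read 15 sec following 15 min substrate incubation, room temp.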
Potency is read from the fitted curve at half-maximal effect; tags tell the direction and shape of the fitted curve.

SMILES	Potency
Cc1ccc(Cn2ccsc2=NC(=O)CCl)cc1	active: 0.562 µM
COc1ccc(N2CCN(C(c3cccc(OC)c3OC)c3nnnn3C3CCCC3)CC2)cc1 (centres undefined)	inactive and inconclusive: 10 µM [inhibitor, partial curve]
Cc1cccc(-c2c3c(nc4c2c(=O)n(C)c(=O)n4C)-c2ccccc2C3O)c1 (centres undefined)	inconclusive: 22.4 µM [inhibitor, single point]
CCCCCCOc1ccc(NC(=O)CC2C(=O)N(CC)C(=S)N2Cc2ccco2)cc1 (centres undefined)	inconclusive: 12.6 µM [inhibitor, partial curve]
CCOc1ccccc1C(=O)N1CCC(C(=O)c2ccc(F)cc2)CC1	inconclusive: 3.55 µM [inhibitor, single point]
O=C(N/N=C/c1ccc(O)cc1)c1cc(C2CC2)[nH]n1	inactive
O=Cc1ccc(OCc2nnc(-c3ccccc3Br)o2)cc1	inactive
CCOC(=O)/C(C#N)=C1/C=C(C)c2ccccc2N1	inconclusive: 10 µM [inhibitor, partial curve]
Cc1ccc([N+](=O)[O-])cc1NC(=O)CCSc1ccc(Cl)cc1	inconclusive: 10 µM [inhibitor, partial curve]
Cc1cccc(C(C)C)c1NC(=O)c1ccc(COc2ccc3c(C)cc(=O)oc3c2)cc1	inconclusive: 7.08 µM [inhibitor, partial curve]
COc1ccc(NC(=O)c2cc(-c3ccc(OC)c(OC)c3)nc3ccccc23)c(OC)c1	inconclusive: 20 µM [inhibitor, single point]
COc1ccc(N2CCN(C(=O)CNC(=O)c3ccc(Br)o3)CC2)cc1	inactive
Cc1nc2ccc(NC(=O)COc3ccccc3[N+](=O)[O-])cc2s1	inconclusive: 5.62 µM [inhibitor, single point]
CCCc1ccc(-c2cc(C(=O)NCCc3ccc(S(N)(=O)=O)cc3)c3ccccc3n2)cc1	inconclusive: 31.6 µM [inhibitor, single point]
COc1ccc(/C=N/n2c(SC)nnc2-c2ccccc2)cc1C	inactive
Cc1ccc(S(=O)(=O)N(C)Cc2ccc(C(=O)N/N=C3\CCCC(=O)C3)cc2)cc1	inconclusive: 8.91 µM [inhibitor, partial curve]
CCCC(=O)N/N=C1\CS(=O)(=O)N(C)c2ccsc21	inconclusive: 2.51 µM [inhibitor, single point]
O=C(NCc1cccnc1)[C@@H]1CC=C[C@@H]2CCN(Cc3ccc(Cl)c(Cl)c3)C(=O)[C@@H]21	inconclusive: 20 µM [inhibitor, single point]
CCn1c2ccc(C)cc2c2nnc(SCCN3CCCCC3)nc21	inconclusive: 17.8 µM [inhibitor, single point]
O=C(CSc1nnc(-c2cccs2)n1-c1cccc(Cl)c1)c1cccc2c1OCCO2	inconclusive: 0.501 µM [inhibitor, partial curve, poor fit]
Cc1cc(OCCN2CCN(S(=O)(=O)c3ccccc3F)CC2)ccc1C(C)C	inactive
CSc1nc(N)nc(-c2cccs2)c1C#N	inconclusive: 31.6 µM [inhibitor, single point]
C=CCOc1ccc(C(=O)CC)cc1OC	inconclusive: 12.6 µM [inhibitor, single point]

SMILES	Potency
CCN(Cc1ccccc1)C(=O)c1cccc(S(=O)(=O)N2CCN(c3ccccc3)CC2)c1	inconclusive: 8.91 µM [inhibitor, partial curve]
N#CCCn1nc(-c2ccccc2)cc1Nc1ccccc1NC(=O)c1cccs1	inconclusive: 31.6 µM [inhibitor, single point]
N#CC1(C#N)CC(C=O)=C(N)C1(C#N)CC(=O)c1ccc(F)cc1 (centres undefined)	inactive
CN(CC(=O)Nc1ccccc1C(F)(F)F)C(=O)c1ccc(-c2ccc(Cl)cc2)o1	inconclusive: 31.6 µM [inhibitor, single point]
COc1ccc(C2CC(c3ccccc3)=NN2C(=O)COC(=O)c2cc(S(=O)(=O)N3CCOCC3)ccc2F)cc1 (centres undefined)	inconclusive: 14.1 µM [inhibitor, single point] and inconclusive: 31.6 µM [inhibitor, single point]
CC(=O)Oc1ccccc1C(=O)N(C1CCCCC1)C1CCCCC1	inconclusive: 31.6 µM [inhibitor, single point]
Cc1cccc(-c2noc(CN(C(=O)c3c(-c4ccccc4Cl)noc3C)C(C)C)n2)c1	active: 10 µM
O=C(CCCSc1nc2ccccc2[nH]1)NCc1ccc(Cl)cc1	inconclusive: 31.6 µM [inhibitor, single point]
O=C(NC(Nc1nc2ccc([N+](=O)[O-])cc2s1)(C(F)(F)F)C(F)(F)F)c1ccccc1	active: 0.562 µM
Nc1c(-c2ccccc2)c(CSc2nc3ccccc3[nH]2)nn1-c1cccc(Cl)c1	inconclusive: 8.91 µM [inhibitor, partial curve]
Cc1nc2nc(C)n(-c3ccccc3)c2s1	inconclusive: 22.4 µM [inhibitor, single point]
CC(C)C(CCNC1CCN(C)CC1)c1ccc(Cl)cc1 (centres undefined)	active: 1.41 µM
N#CC1=C(N)N(c2ccccc2)C(c2ccccc2)C1(C#N)C#N (centres undefined)	inconclusive: 10 µM [inhibitor, partial curve]
O/N=C(\c1ccc(Cl)cc1)c1cc2ccccc2o1	inconclusive: 31.6 µM [inhibitor, single point]
O=C(Nc1ccccc1F)c1ccc(CN2CCN(c3ccccc3)CC2)cc1	inconclusive: 10 µM [inhibitor, partial curve]
Cc1sc2ncnc(NCc3cccnc3)c2c1C	inconclusive: 31.6 µM [inhibitor, single point]
COCCn1c(=NC(=O)c2sc3ccccc3c2Cl)sc2cc(S(N)(=O)=O)ccc21	inconclusive: 3.16 µM [inhibitor, single point]
CNC(=O)COc1ccc(Nc2nnc(-c3ccc(C)c(S(N)(=O)=O)c3)c3ccccc23)cc1	inactive
COc1cc(NC(=O)CSc2ncnc3scc(-c4ccccc4)c23)c(C(=O)O)cc1OC	inactive
NC(N)=NC(N)=Nc1cccc(Cl)c1	inactive
CSc1cc(-c2ccccc2)n(Cc2ccc(Cl)cc2Cl)c(=O)c1C#N	inconclusive: 10 µM [inhibitor, partial curve]
CC(=O)N(c1ccccc1)c1nnc(-c2cnc(C)cn2)s1	inactive
O=C(NCc1ccncc1)c1ccc(OCc2ccccc2)cc1	inconclusive: 11.2 µM [inhibitor, single point]

SMILES	Potency
O=C(CNC(=O)c1cccc(Br)c1)N/N=C/c1cc(Br)cc(Br)c1O	inconclusive: 25.1 µM [inhibitor, single point]
Cc1cc(N2CCCC2=O)cc(C)c1S(=O)(=O)NCCOc1ccc(C(C)(C)C)cc1	active: 11.2 µM
CC(C)(C)C(=O)Cn1ncc(N2CCOCC2)c(Cl)c1=O	inactive
CN(C(=O)c1ccc(OC2CCN(Cc3ccccn3)CC2)cc1)C1CCCCC1	inactive
COc1ccc(CNCc2ccco2)cc1OCc1ccccc1	inactive
COc1cccc(OC)c1OCCCCn1cnc2ccccc2c1=O	inconclusive: 10 µM [inhibitor, partial curve]
O=C(NCc1nc(-c2ccccc2)no1)c1ccc(Br)o1	inactive
CCc1nc(N2CCOCC2)c(C#N)c2c1CCCC2	inconclusive: 4.47 µM [inhibitor, full curve, poor fit]
CCN1CCn2c3c(c4cc(Br)ccc42)CCCC31 (centres undefined)	inconclusive: 22.4 µM [inhibitor, single point]
C/C=C(/C)C(=O)OC1Cc2c(ccc3ccc(=O)oc23)OC1(C)C (centres undefined)	inconclusive: 15.8 µM [inhibitor, partial curve, poor fit]
CCCCn1nc(C(=O)Nc2ccccc2N2CCCC2)c2ccccc2c1=O	inconclusive: 10 µM [inhibitor, partial curve]
COc1ccc(CNC(=O)COC(=O)/C=C/c2cccc(Cl)c2)cc1	inactive
O=Cc1sc(=O)n(Cc2cccc(C(=O)O)c2)c1Cl	inactive
C#CCn1c(=NC(=O)c2cccs2)sc2cccc(OCC)c21	inconclusive: 2.24 µM [inhibitor, full curve]
CCCCNC(=O)N(O)C1N(/N=C/c2ccccc2O)C(=S)SC1(C)C (centres undefined)	active: 7.08 µM
CCOC(=O)N1CCC(NC(=O)c2cc3c(=O)[nH]c4ccccc4c3n2C)CC1	inconclusive: 31.6 µM [inhibitor, single point]
O=C(COc1ccc(Br)cc1CNC1CCCC1)Nc1ccccc1	inconclusive: 31.6 µM [inhibitor, single point]
COc1ccc(N2C(=O)CC(Sc3nnnn3-c3ccc(F)cc3)C2=O)cc1 (centres undefined)	inconclusive: 14.1 µM [inhibitor, single point]
Cc1oc2ccc(O)c(CN3CCOCC3)c2c1C(C)O (centres undefined)	inactive
O=C(NCc1ccc2[nH]c3c(c2c1)CCCC3)c1ccc(S(=O)(=O)N2CCCCC2)cc1	inconclusive: 7.94 µM [inhibitor, partial curve]
CCCNC(=O)c1nn2c(C(F)(F)F)cc(-c3ccccc3)nc2c1Cl	inconclusive: 31.6 µM [inhibitor, single point]
CCOC(=O)Nc1sc2c(c1C(=O)OCC)CCC2	inactive
COc1ccc(C)cc1NC(=O)CSc1nnc(COc2ccc(C)cc2)n1Cc1ccco1	inconclusive: 5.01 µM [inhibitor, partial curve]
